Measured values published in the DeepSol protein solubility set.

Experiment: soluble on expression in E. coli; label from the status in PepcDB or PDB records

Sequence	soluble on expression in E. coli
LTYTDCTESGQNLCLCEGSNVCGQGNKCILGSDGEKNQCVTGEGTPKPQSHNDGDFEEIPEEYLQ	soluble
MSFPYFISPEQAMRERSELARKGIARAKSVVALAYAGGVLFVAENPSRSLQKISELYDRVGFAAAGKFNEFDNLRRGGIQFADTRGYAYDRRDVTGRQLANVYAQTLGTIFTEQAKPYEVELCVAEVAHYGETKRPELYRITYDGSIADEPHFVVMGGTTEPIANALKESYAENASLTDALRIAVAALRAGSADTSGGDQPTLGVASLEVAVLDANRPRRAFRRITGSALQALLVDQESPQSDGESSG	soluble
